# Laboratory results published in PubChem BioAssay AID588342 (National Center for Advancing Translational Sciences (NCATS), 2011).
# Hit rate of the full screen: of about 360,000 compounds, about 25,000 (6.9%) were called active. The shares of active, inactive and inconclusive entries below differ from those in the screen. The call rests on the fitted dose curve; in most records, active means well fitted inhibition curve with a large enough effect; inconclusive means small, poorly fitted or top-dose-only effect; inactive means flat fitted curve, though single readings scatter. Potencies beside an inconclusive call are fits to weak or partial responses and may not hold up.
# Biological target: Luciferin 4-monooxygenase (Photinus pyralis) (UniProt P08659)
# Experiment: qHTS profiling assay for firefly luciferase inhibitor/activator using purifed enzyme and Km concentrations of substrates (counterscreen for miR-21 project); further: nearly all actives have a fitted effect of over 55% in size;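 on activity change, negative = inhibition: plate controls were vehicle for no effect and reference inhibitor for full effect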
# Conditions: purified FLuc, luminescence inhibition; activity change, negative = inhibition: at 57.5 µM (top of the series)
# In short: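 Purified P. pyralis luciferase (10nM final) with 10uM D-luciferin and 10uM ATP (Km levels) in 50mM Tris acetate pH 7.5, 10mM Mg acetate, 0.01% Tween-20, 0.05% BSA; qHTS 6-point titration, ~60 µM downward; luminescence read.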
# Potency means the concentration at half of the fitted maximal effect; tags describe the fitted curve by direction and shape.
# Sequence of UniProt P08659 (P08659 whole entry, looked up): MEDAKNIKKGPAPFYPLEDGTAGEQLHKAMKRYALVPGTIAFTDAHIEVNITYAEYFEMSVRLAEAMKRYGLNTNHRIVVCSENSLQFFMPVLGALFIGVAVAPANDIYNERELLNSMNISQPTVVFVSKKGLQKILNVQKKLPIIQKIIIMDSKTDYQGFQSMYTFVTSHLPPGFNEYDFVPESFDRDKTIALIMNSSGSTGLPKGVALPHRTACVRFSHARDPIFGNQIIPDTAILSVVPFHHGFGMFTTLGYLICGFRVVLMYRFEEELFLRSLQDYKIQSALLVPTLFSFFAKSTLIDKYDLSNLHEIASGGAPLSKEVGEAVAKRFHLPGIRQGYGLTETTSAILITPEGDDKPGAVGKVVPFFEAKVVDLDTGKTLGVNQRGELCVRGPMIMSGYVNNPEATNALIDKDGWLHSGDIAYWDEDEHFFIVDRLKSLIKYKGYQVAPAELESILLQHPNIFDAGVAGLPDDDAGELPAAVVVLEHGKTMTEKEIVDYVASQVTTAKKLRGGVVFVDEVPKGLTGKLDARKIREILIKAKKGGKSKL
SMILES,Potency,"activity change, negative = inhibition"
O=C(/C=C/c1cccc(Cl)c1)NCc1cccs1,"inconclusive: 23.9 µM [inhibitor, partial curve, poor fit]",–
CCCc1nnc(NC(=O)c2cc(=O)c3ccccc3o2)s1,"inconclusive: 16.9 µM [inhibitor, partial curve]",–
CCCCN(C(=O)NC(=O)Nc1nc2ccc(OC)cc2s1)S(C)(=O)=O,active: 23.9 µM,–
Cc1ccc(NC(=O)C2CCCN2C(=O)OCc2ccccc2)c(O)c1 (stereo unspecified),–,inactive: -0.713%
FC(F)Sc1ccc(Nc2ncnc3nc[nH]c23)cc1,"inconclusive: 13.5 µM [inhibitor, partial curve]",–
COCCN(C(=O)c1ccccc1)c1nc(-c2ccc(OC)cc2)cs1,–,inactive: -16%
O=C(O)c1ccc(-n2ncc3c2/C(=C/c2cccc([N+](=O)[O-])c2)CC3)cc1,active: 10.7 µM,–
C=Cn1c(C(=O)O)ccc1-c1ccc(CC)cc1,active: 21.3 µM,–
COc1ccc(C)cc1NC(=O)c1cc(S(=O)(=O)N2CCOCC2)cn1C,inactive,–
CC(C)c1ccc(Nc2nnc(SCC(=O)c3nnc(-c4ccccc4)o3)s2)cc1,active: 10.7 µM,–
Cc1ccc(Nc2nc(-c3ccc(C)cc3)c(CC(=O)O)s2)cc1,"inconclusive: 37.9 µM [inhibitor, partial curve, poor fit]",–
O=C1COc2ccc(NC(=O)c3ccccc3C(=O)O)cc2N1,"inconclusive: 37.9 µM [inhibitor, partial curve, poor fit]",–
COc1ccc(-c2nc(SCC(=O)Nc3cccc(S(N)(=O)=O)c3)n[nH]2)cc1,active: 1.69 µM,–
CCNC(=O)c1c(NC(=O)Cc2coc3ccc(CC)cc23)sc2c1CCCC2,–,inactive: 2.21%
CC1=Nc2ccccc2N=C(N)C1c1ccccc1 (stereo unspecified),"inconclusive: 21.3 µM [inhibitor, single point]",–
CCOC(=O)Cn1nnc(-c2cccc(OC)c2)n1,active: 10.7 µM,–
N#C/C(=C\c1ccncc1)c1nc2c(s1)CCCC2,"inconclusive: 12 µM [inhibitor, partial curve]",–
Cc1ccc2c(c1)N(C(=O)N1CCC(C(=O)NCc3ccccc3C)CC1)CC(C)O2 (stereo unspecified),–,inactive: 7.44%
COc1ccc(-c2oc3ccccc3c(=O)c2OC(C)=O)cc1,"inconclusive: 30.1 µM [inhibitor, partial curve, poor fit]",–
CC(C)(C)C(=O)OCc1nc(-c2ccc(O)c(O)c2)cs1,active: 4.26 µM,–
CCc1sc(C(=O)Nc2nc(C)cs2)cc1C,active: 1.9 µM,–
Cc1cccc(/C=N/NC(=O)c2ccc(NC(=O)c3ccccc3C)cc2)n1,"inconclusive: 23.9 µM [inhibitor, single point]",–
COCC(=O)Nc1nc(-c2ccc(C)cc2)c(C)s1,"inconclusive: 23.9 µM [inhibitor, single point]",–
CC1CCCCN1C(=O)NC12CC3CC(CC(C3)C1)C2 (stereo unspecified),–,inactive: -0.749%
O=C(COC(=O)c1sc2ccccc2c1Cl)NC1CCCCC1,"inconclusive: 26.9 µM [inhibitor, single point]",–
CCNC(=O)c1ccc2c(c1)nc1n2CCCCC1,"inconclusive: 19 µM [inhibitor, partial curve]",–

SMILES,Potency,"activity change, negative = inhibition"
CCOC(=O)c1cnc(SSc2ncc(C(=O)OCC)c(N)n2)nc1N,"inconclusive: 19 µM [inhibitor, partial curve]",–
CS(=O)(=O)c1ccc(-c2nnc(NC(=O)c3ccco3)o2)cc1,active: 12 µM,–
COc1ccc(/C=N/NC(=O)c2ccn[nH]2)cc1Cn1nc(C)c([N+](=O)[O-])c1C,"inconclusive: 30.1 µM [inhibitor, partial curve, poor fit]",–
CCn1nc(NC(=O)C2CCCO2)c2cc3cc(C)ccc3nc21 (stereo unspecified),active: 16.9 µM,–
Cc1ccc(C(=O)Nc2cccnc2Cl)cc1Cl,active: 16.9 µM,–
CCN(CC(=O)NCc1ccncc1)S(=O)(=O)c1ccccc1,–,inactive: 7.65%
O=C(COc1cc2oc(=O)cc(-c3ccccc3)c2cc1Cl)NCC1CCC(C(=O)O)CC1 (stereo unspecified),"inconclusive: 21.3 µM [inhibitor, partial curve, poor fit]",–
COc1ccc(C(=O)/C=C/c2ccc(OC)c(Cn3nnc4ccccc43)c2)cc1,"inconclusive: 15.1 µM [inhibitor, partial curve]",–
COc1ccc(-c2oc3ccccc3c2C(=O)OCc2ccccc2)cc1,"inconclusive: 26.9 µM [inhibitor, single point]",–
CCOc1c(Cl)cc(/C=N/NC(N)=S)cc1OC,–,inactive: -0.119%
Clc1ccc(-c2nc3nc4ccccc4nc3n2Cc2ccco2)cc1,"inconclusive: 21.3 µM [inhibitor, partial curve]",–
COCCN(Cc1nc(-c2ccc(-c3ccccc3)cc2)oc1C)C(C)C,active: 9.53 µM,–
O=C(Nc1cccc(Cl)c1)C1CCCN(c2nn3cc(-c4ccc(F)cc4)nc3s2)C1 (stereo unspecified),"inconclusive: 9.53 µM [inhibitor, partial curve]",–
O=C(Nc1nnc(C2CCCCC2)s1)c1cccs1,active: 4.78 µM,–
COc1ccc2[nH]c3c(c2c1)CCn1c-3nc2ccccc2c1=O,active: 0.478 µM,–
COc1cc(C(=O)OCC(=O)Nc2ccc(SC(F)F)cc2)cc(OC)c1OC,–,inactive: 0.751%
O=c1[nH]c2ccccc2cc1-c1nnn(-c2ccc(F)cc2)n1,active: 1.9 µM,–
CCOc1ccc(C(=O)Nc2cc(-c3nc4cc(OC)ccc4o3)ccc2C)cc1[N+](=O)[O-],active: 6.75 µM,–
CCc1ccc2c(c1)C(c1ccc([N+](=O)[O-])cc1)=NNC(c1ccc(F)cc1)=N2,"inconclusive: 26.9 µM [inhibitor, single point]",–
COc1ccc(C(=O)Nc2nc(-c3cccs3)cs2)cc1,active: 6.75 µM,–
Cc1ccc(S(=O)(=O)N2CCOC23CCN(C(=O)C(=O)NCCC(C)C)CC3)cc1,–,inactive: -1.04%
Nc1nc(COC(=O)c2ccc3c(c2)OCCO3)nc(Nc2ccccc2)n1,–,inactive: -13%
COc1ccc(OCC(=O)Nc2ccc(S(=O)(=O)Nc3cc(C)on3)cc2)cc1,"inconclusive: 37.9 µM [inhibitor, partial curve, poor fit]",–
OC1CCCN(Cc2ccc3ccc4cccc5ccc2c3c45)C1 (stereo unspecified),"inconclusive: 26.9 µM [inhibitor, partial curve]",–
CC(C)(C)C1CCC(=O)N(CCOc2ccccc2)CC1 (stereo unspecified),"inconclusive: 33.8 µM [inhibitor, partial curve, poor fit]",–
CC(C)CC(NS(=O)(=O)c1ccc2c(c1)oc(=O)n2C)C(=O)NC1CCCc2ccccc21 (stereo unspecified),–,inactive: 1.68%

SMILES,Potency,"activity change, negative = inhibition"
C=C(C(=O)c1ccccc1)C(C)C(=C)C(=O)c1ccccc1,–,inactive: -1.64%
O=C1c2ccccc2C(=O)C1c1ccc2ccccc2n1,active: 0.169 µM,–
Cc1ccc(-n2c(=O)c3sc4ccccc4c3n(C)c2=O)cc1F,–,inactive: -0.932%
Cc1ccc(Nc2nc(N)nc(COC(=O)c3ccc(Br)o3)n2)cc1,"inconclusive: 9.53 µM [inhibitor, partial curve, poor fit]",–
CC(=O)Sc1nc(-c2ccccc2)[nH]c1S(=O)(=O)c1ccc(C)cc1,"inconclusive: 13.5 µM [inhibitor, partial curve]",–
COc1ccccc1C1CCN(c2ccc(CO)cc2[N+](=O)[O-])CC1,"inconclusive: 26.9 µM [inhibitor, single point]",–
O=C(Oc1ccc(N2C(=O)CCC2=O)cc1)c1ccccc1,"inconclusive: 7.57 µM [inhibitor, partial curve, poor fit]",–
O=C(O)c1cc(-c2cc(C(=O)O)c3ccccc3n2)nc2ccccc12,"inconclusive: 23.9 µM [inhibitor, single point]",–
CCCCOC(=O)c1ccc(OC(=O)c2cccnc2)cc1,"inconclusive: 26.9 µM [inhibitor, single point]",–
O=C(/C=C/c1ccccc1)N/C(=C/c1ccccc1)C(=O)Nc1ccc(C(=O)O)cc1,"inconclusive: 21.3 µM [inhibitor, partial curve, poor fit]",–
COc1cccc(C(=O)N[C@@H](C)C(=O)N2CCC3(CC2)NCCc2[nH]cnc23)c1,–,inactive: 2.78%
Cc1ccc(N/C(C(Cl)=C(Cl)Cl)=C(/Cl)[N+](=O)[O-])c(C)c1,–,inactive: -9.22%
Cc1ccc(C(=O)N2CCCCC2)cc1NC(=O)c1nsc2ccccc12,"inconclusive: 23.9 µM [inhibitor, partial curve, poor fit]",–
Cc1c(CCNC(=O)c2ccc(Br)o2)sc2nc(-c3ccc(Cl)cc3)nn12,"inconclusive: 13.5 µM [inhibitor, partial curve]",–
Cn1nccc1C(=O)NC1CCCc2c1cnn2-c1ccc(C(C)(C)C)cc1 (stereo unspecified),"inconclusive: 23.9 µM [inhibitor, partial curve, poor fit]",–
COc1ccc(N=Cc2sc(O)c3ccccc23)cc1,active: 3.79 µM,–
CC1CN(S(=O)(=O)c2cccc(C(=O)Nc3ccccc3N3CCCC3)c2)CC(C)O1 (stereo unspecified),–,inactive: -1.33%
COc1ccc(N2CCN(c3cnc4ccccc4n3)CC2)cc1,active: 13.5 µM,–
NC(N)=NC(=O)c1nc(Cl)c(N2CCCCCC2)nc1N,active: 4.26 µM,–
CCOC(=O)Cc1csc(NC(=O)c2ccc3c(c2)OCO3)n1,active: 12 µM,–
O=C(Nc1ccccc1C(F)(F)F)C1CCN(S(=O)(=O)Cc2ccccc2)CC1,–,inactive: -1.6%
CC(C)C[C@@H](CSc1ccccc1)N1CCN(CCc2ccccc2)CCC1=O,"inconclusive: 21.3 µM [inhibitor, single point]",–
Cc1cc2nnc(SCC(=O)Nc3cccc(S(=O)(=O)N4CCOCC4)c3)n2c2ccccc12,–,inactive: -2.35%
CC(=O)c1c(C)[nH]c(C(=O)OCc2ccccc2F)c1C,"inconclusive: 30.1 µM [inhibitor, partial curve, poor fit]",–
